This is an account of results in paper PMC9911399, “Two distinct binding modes provide the RNA-binding protein RbFox with extraordinary sequence specificity”.

Substitutions are numbered along the chain they refer to; changes in the protein carry UniProt numbers. Some of the results follow.

T1: RBFOX1 RRM (Homo sapiens, UniProt Q9NWB1 109-208)
T1 sequence: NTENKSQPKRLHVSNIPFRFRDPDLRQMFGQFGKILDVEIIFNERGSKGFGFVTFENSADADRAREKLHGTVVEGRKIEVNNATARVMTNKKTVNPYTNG

B1: UUCGUCG (DNA:RNA)
RNA: GGGAGACCGGAAUUCAGAUUGUCCUUCGUCGUUAAAUCCCGUCGUAGCCACCA
DNA 1: CAATCTGAATTCCGGTCTCCC
DNA 2: TGGTGGCTACGACGGGATT
B2: UUACAUG (DNA:RNA)
RNA: B1 RNA with C27A, G28C, U29A, C30U
DNA 1: CAATCTGAATTCCGGTCTCCC
DNA 2: TGGTGGCTACGACGGGATT
B3: GAGGAUA (DNA:RNA)
RNA: B1 RNA with U25G, U26A, C27G, U29A, C30U, G31A
DNA 1: CAATCTGAATTCCGGTCTCCC
DNA 2: TGGTGGCTACGACGGGATT
B4: AAAUCCA (DNA:RNA)
RNA: B1 RNA with U25A, U26A, C27A, G28U, U29C, G31A
DNA 1: CAATCTGAATTCCGGTCTCCC
DNA 2: TGGTGGCTACGACGGGATT
B5: AAUACUU (DNA:RNA)
RNA: GGGAGACCGGAAUUCAGAUUGUCCAAUACUUUUAAAUCCCGUCGUAGCCACCA
DNA 1: CAATCTGAATTCCGGTCTCCC
DNA 2: TGGTGGCTACGACGGGATT
B6: CAGCGUU (DNA:RNA)
RNA: B5 RNA with A25C, U27G, A28C, C29G
DNA 1: CAATCTGAATTCCGGTCTCCC
DNA 2: TGGTGGCTACGACGGGATT
B7: GGCCAAU (DNA:RNA)
RNA: B5 RNA with A25G, A26G, U27C, A28C, C29A, U30A
DNA 1: CAATCTGAATTCCGGTCTCCC
DNA 2: TGGTGGCTACGACGGGATT
B8: GGGCGAC (DNA:RNA)
RNA: GGGAGACCGGAAUUCAGAUUGUCCGGGCGACUUAAAUCCCGUCGUAGCCACCA
DNA 1: CAATCTGAATTCCGGTCTCCC
DNA 2: TGGTGGCTACGACGGGATT
B9: AGAACAU (DNA:RNA)
RNA: B5 RNA with A26G, U27A, U30A
DNA 1: CAATCTGAATTCCGGTCTCCC
DNA 2: TGGTGGCTACGACGGGATT
B10: UGCCCAU (DNA:RNA)
RNA: B8 RNA with G25U, G27C, G29C, C31U
DNA 1: CAATCTGAATTCCGGTCTCCC
DNA 2: TGGTGGCTACGACGGGATT
B11: GCGGUCU (DNA:RNA)
RNA: B1 RNA with U25G, U26C, C27G, G31U
DNA 1: CAATCTGAATTCCGGTCTCCC
DNA 2: TGGTGGCTACGACGGGATT
B12: AGCCGCA (DNA:RNA)
RNA: B8 RNA with G25A, G27C, A30C, C31A
DNA 1: CAATCTGAATTCCGGTCTCCC
DNA 2: TGGTGGCTACGACGGGATT
B13: GGUACAG (DNA:RNA)
RNA: B5 RNA with A25G, A26G, U30A, U31G
DNA 1: CAATCTGAATTCCGGTCTCCC
DNA 2: TGGTGGCTACGACGGGATT
B14: CUAAUAA (DNA:RNA)
RNA: B1 RNA with U25C, C27A, G28A, C30A, G31A
DNA 1: CAATCTGAATTCCGGTCTCCC
DNA 2: TGGTGGCTACGACGGGATT
B15: UGAAUGG (DNA:RNA)
RNA: B1 RNA with U26G, C27A, G28A, C30G
DNA 1: CAATCTGAATTCCGGTCTCCC
DNA 2: TGGTGGCTACGACGGGATT
B16: UUUCUCU (DNA:RNA)
RNA: B1 RNA with C27U, G28C, G31U
DNA 1: CAATCTGAATTCCGGTCTCCC
DNA 2: TGGTGGCTACGACGGGATT
B17: GUUCAGA (DNA:RNA)
RNA: B8 RNA with G26U, G27U, G29A, A30G, C31A
DNA 1: CAATCTGAATTCCGGTCTCCC
DNA 2: TGGTGGCTACGACGGGATT
B18: GACUGAG (DNA:RNA)
RNA: B8 RNA with G26A, G27C, C28U, C31G
DNA 1: CAATCTGAATTCCGGTCTCCC
DNA 2: TGGTGGCTACGACGGGATT
B19: UGUUGCC (DNA:RNA)
RNA: B8 RNA with G25U, G27U, C28U, A30C
DNA 1: CAATCTGAATTCCGGTCTCCC
DNA 2: TGGTGGCTACGACGGGATT
B20: CCCGUAC (DNA:RNA)
RNA: B1 RNA with U25C, U26C, C30A, G31C
DNA 1: CAATCTGAATTCCGGTCTCCC
DNA 2: TGGTGGCTACGACGGGATT
B21: UUCCGCU (DNA:RNA)
RNA: B1 RNA with G28C, U29G, G31U
DNA 1: CAATCTGAATTCCGGTCTCCC
DNA 2: TGGTGGCTACGACGGGATT
B22: CAGUUUC (DNA:RNA)
RNA: B5 RNA with A25C, U27G, A28U, C29U, U31C
DNA 1: CAATCTGAATTCCGGTCTCCC
DNA 2: TGGTGGCTACGACGGGATT
B23: CUGAGUU (DNA:RNA)
RNA: B5 RNA with A25C, A26U, U27G, C29G
DNA 1: CAATCTGAATTCCGGTCTCCC
DNA 2: TGGTGGCTACGACGGGATT
B24: CAUUAGU (DNA:RNA)
RNA: B5 RNA with A25C, A28U, C29A, U30G
DNA 1: CAATCTGAATTCCGGTCTCCC
DNA 2: TGGTGGCTACGACGGGATT
B25: AGCAUCG (DNA:RNA)
RNA: B1 RNA with U25A, U26G, G28A
DNA 1: CAATCTGAATTCCGGTCTCCC
DNA 2: TGGTGGCTACGACGGGATT
B26: UACAUAU (DNA:RNA)
RNA: B5 RNA with A25U, U27C, C29U, U30A
DNA 1: CAATCTGAATTCCGGTCTCCC
DNA 2: TGGTGGCTACGACGGGATT
B27: UUGGGUA (DNA:RNA)
RNA: B1 RNA with C27G, U29G, C30U, G31A
DNA 1: CAATCTGAATTCCGGTCTCCC
DNA 2: TGGTGGCTACGACGGGATT
B28: ACCAUCG (DNA:RNA)
RNA: B1 RNA with U25A, U26C, G28A
DNA 1: CAATCTGAATTCCGGTCTCCC
DNA 2: TGGTGGCTACGACGGGATT
B29: UUAGGAC (DNA:RNA)
RNA: B8 RNA with G25U, G26U, G27A, C28G
DNA 1: CAATCTGAATTCCGGTCTCCC
DNA 2: TGGTGGCTACGACGGGATT
B30: CCGGGAC (DNA:RNA)
RNA: B8 RNA with G25C, G26C, C28G
DNA 1: CAATCTGAATTCCGGTCTCCC
DNA 2: TGGTGGCTACGACGGGATT
B31: ACAUCCG (DNA:RNA)
RNA: B5 RNA with A26C, U27A, A28U, U30C, U31G
DNA 1: CAATCTGAATTCCGGTCTCCC
DNA 2: TGGTGGCTACGACGGGATT

In the experiment the target is T1, RBFOX1 RRM. Kind of experiment: EMSA; HiTS-Eq, 1 nM pool, 10 min; buffer printed only for the single-RNA assays: 10 mM Tris pH 7.5, 150 mM NaCl, 3.4 mM EDTA, 0.001% NP-40, 30 C. To be noted: tags: His6 N-terminal (pET28a); label: 5' 32P. The method in brief:
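Relative association constants, normalised to the cognate motif, were derived by comparing read counts of each RNA species with those of the control reaction. The RNA sequenced was the free fraction, separated by 8% native PAGE after a 10 min equilibration in 50 µL of 1 nM 5′-radiolabelled RNA (7 randomized nucleotides) with increasing concentrations of purified wild-type or mutant RbFox RRM.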
In the case of B1, the binding signal is 0.024 KA relative to UGCAUGU.

B2: the binding signal is 0.0114 KA relative to UGCAUGU.

In the case of B3, the binding signal is 0.00863 KA relative to UGCAUGU.

Take B4: the binding signal was 0.00145 KA relative to UGCAUGU.

For B5, the binding signal is 0.00188 KA relative to UGCAUGU.

Regarding B6, the binding signal is 0.00682 KA relative to UGCAUGU.

Consider B7, for which the binding signal is 0.00309 KA relative to UGCAUGU.

With B8, the binding signal is 0.0078 KA relative to UGCAUGU.

Consider B9, for which the binding signal is 0.00222 KA relative to UGCAUGU.

Turning to B10, the binding signal is 0.00564 KA relative to UGCAUGU.

On to B11, for which the binding signal was 0.0222 KA relative to UGCAUGU.

Consider B12, for which the binding signal was 0.0125 KA relative to UGCAUGU.

Turning to B13, the binding signal is 0.00672 KA relative to UGCAUGU.

Consider B14, for which the binding signal was 0.00115 KA relative to UGCAUGU.

For the molecule B15, the binding signal was 0.0227 KA relative to UGCAUGU.

Consider B16, for which the binding signal is 0.0126 KA relative to UGCAUGU.

For the molecule B17, the binding signal was 0.0176 KA relative to UGCAUGU.

On to B18, for which the binding signal is 0.0217 KA relative to UGCAUGU.

For the molecule B19, the binding signal is 0.0243 KA relative to UGCAUGU.

With B20, the binding signal was 0.000243 KA relative to UGCAUGU.

Turning to B21, the binding signal is 0.00577 KA relative to UGCAUGU.

In the case of B22, the binding signal was 0.00996 KA relative to UGCAUGU.

With B23, the binding signal is 0.0144 KA relative to UGCAUGU.

In the case of B24, the binding signal is 0.0065 KA relative to UGCAUGU.

As for B25, the binding signal is 0.0146 KA relative to UGCAUGU.

Turning to B26, the binding signal is 0.00103 KA relative to UGCAUGU.

Consider B27, for which the binding signal is 0.0202 KA relative to UGCAUGU.

Turning to B28, the binding signal is 0.00248 KA relative to UGCAUGU.

In the case of B29, the binding signal is 0.00575 KA relative to UGCAUGU.

For the molecule B30, the binding signal is 0.00692 KA relative to UGCAUGU.

Regarding B31, the binding signal is 0.00179 KA relative to UGCAUGU.
